From PMC4336329 (PLoS ONE, 2015) come the findings set out here.

Each structure is given as a SMILES string. About 14,000 (4.5%) of roughly 310,000 compounds showed an effect of 50% or more. Effects have a minus sign here. The list shows a part of the results.
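Also: peak tail current of the secondary pulse compared with the same well before compound.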

The target in the assay is human ether-à-go-go-related gene (hERG) potassium channel (human, UniProt Q12809). Description: primary screen, population patch clamp on CHO cells stably expressing hERG.
Chain of human ether-à-go-go-related gene (hERG) potassium channel (Q12809 whole entry, looked up): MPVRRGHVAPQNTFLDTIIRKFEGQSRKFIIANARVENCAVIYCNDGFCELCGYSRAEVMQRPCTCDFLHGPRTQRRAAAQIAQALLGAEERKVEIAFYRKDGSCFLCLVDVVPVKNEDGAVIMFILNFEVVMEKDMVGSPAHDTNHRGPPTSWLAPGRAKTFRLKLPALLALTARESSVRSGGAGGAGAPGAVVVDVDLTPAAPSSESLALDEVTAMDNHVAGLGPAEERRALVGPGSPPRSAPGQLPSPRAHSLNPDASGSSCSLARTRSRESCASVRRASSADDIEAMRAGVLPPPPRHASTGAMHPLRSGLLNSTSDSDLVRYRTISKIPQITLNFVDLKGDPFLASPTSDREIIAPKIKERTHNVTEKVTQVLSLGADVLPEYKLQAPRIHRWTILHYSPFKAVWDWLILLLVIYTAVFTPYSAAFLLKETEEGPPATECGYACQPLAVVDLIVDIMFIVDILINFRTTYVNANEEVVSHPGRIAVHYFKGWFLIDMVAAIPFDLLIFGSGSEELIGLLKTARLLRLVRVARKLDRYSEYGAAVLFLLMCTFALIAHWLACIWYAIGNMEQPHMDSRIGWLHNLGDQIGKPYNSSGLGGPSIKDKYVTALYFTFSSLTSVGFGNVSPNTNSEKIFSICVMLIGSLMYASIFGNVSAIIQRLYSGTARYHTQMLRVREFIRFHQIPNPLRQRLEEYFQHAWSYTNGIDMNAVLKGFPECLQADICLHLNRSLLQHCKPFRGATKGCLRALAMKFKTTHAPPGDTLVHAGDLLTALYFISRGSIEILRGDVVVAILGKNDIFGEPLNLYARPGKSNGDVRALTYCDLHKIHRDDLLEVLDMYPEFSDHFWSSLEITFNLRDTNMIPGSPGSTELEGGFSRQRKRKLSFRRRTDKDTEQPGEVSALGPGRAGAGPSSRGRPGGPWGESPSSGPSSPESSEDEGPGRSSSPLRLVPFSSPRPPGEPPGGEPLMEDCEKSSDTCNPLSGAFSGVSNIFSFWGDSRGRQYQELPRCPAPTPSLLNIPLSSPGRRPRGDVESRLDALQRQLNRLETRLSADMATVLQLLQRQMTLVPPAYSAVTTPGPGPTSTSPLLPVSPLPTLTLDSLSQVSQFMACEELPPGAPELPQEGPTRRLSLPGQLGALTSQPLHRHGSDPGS
As for `O=C(Nc1nc(-c2ccc(Cl)cc2Cl)cs1)c1ccc(OCC2CCCO2)cc1` (stereo not shown), the “hERG current change (%, negative = inhibition) at 10uM” value is given as 6.82%. For `COc1ccc(CNC(=O)COC(=O)c2cc(-c3cccs3)nc3ccccc23)cc1OC`, the “hERG current change (%, negative = inhibition) at 10uM” value is listed as 13.7%.

For `CCN1CCN(C(=O)c2ccc(CS(=O)(=O)Cc3ccccc3C)o2)CC1`, the “hERG current change (%, negative = inhibition) at 10uM” value came to 13.3%. With `COc1cc(C(=O)NC(=S)Nc2ccc3oc(=O)ccc3c2)cc(OC)c1OC`, the “hERG current change (%, negative = inhibition) at 10uM” value is on record as 9.8%. Consider `CC(C)Cn1nc(C(=O)OCC(=O)NCC(F)(F)F)c2ccccc2c1=O`, for which the “hERG current change (%, negative = inhibition) at 10uM” value is -78.2%. With `Cc1nc2c(cc1N)nc(C)n2Cc1ccccc1`, the “hERG current change (%, negative = inhibition) at 10uM” value was found to be 7.23%. In the case of `O=C(NCCCc1ccccc1)c1ccc(CS(=O)Cc2ccc(Cl)cc2)o1` (stereo not shown) it was -74.3%; in that of `Cc1cccc(CCNC(=O)CN(C)S(=O)(=O)c2ccc3c(c2)c(=O)n(C)c(=O)n3C)c1`, 3.86%. `CCN(CC)C(=O)CSc1nnc(COc2ccccc2)n1N`: the “hERG current change (%, negative = inhibition) at 10uM” value was determined as 5.65%.

Regarding `Cc1c(N(C)C(=O)c2ccccc2F)c(=O)n(-c2ccccc2)n1C`, the “hERG current change (%, negative = inhibition) at 10uM” value was 6.39%. In the case of `CCn1c(SCC(=O)NCCc2ccccc2)nnc1C(C)C` it was 13.8%; in that of `Cc1ccc(Sc2c([N+](=O)[O-])c(C)nn2C)cc1`, 11.3%; in that of `CN(C)S(=O)(=O)c1ccc(C(=O)OCn2nnc3ccccc3c2=O)cc1`, -37.6%. In the case of `C=CCn1c(SCC(=O)N(C)C)nc2cc(C(=O)O)ccc2c1=O` it was 46.4%. For the compound `COc1cccc(CCc2nnc(CCC(=O)NCCc3cccc(C)n3)o2)c1`, the “hERG current change (%, negative = inhibition) at 10uM” value was found to be 24.7%.

On to `Cc1c(NC(=O)C(C)OC(=O)c2cccs2)c(=O)n(-c2ccccc2)n1C` (stereo not shown), for which the “hERG current change (%, negative = inhibition) at 10uM” value is 3.46%. Consider `O=C(Nc1ccc(S(=O)(=O)N2CCCCC2)cc1)C1CC1`, for which the “hERG current change (%, negative = inhibition) at 10uM” value is 0.836%. The figure for `O=C(CNC(=O)c1cccc(F)c1)OCC(=O)N1CCCCC1` is 4.9%; for `COC(=O)Nc1nc(C)c(C(=O)N(C)C)s1` it is 6.65%; for `COc1cccc(-c2cc(C(F)(F)F)n3ncc(C(=O)N4CCc5ccccc5C4)c3n2)c1` it is -21.7%. In the case of `O=C1CSC(=S)N1c1cccnc1` it was -7.65%; in that of `CC(NC(=O)c1ccc(Br)o1)C1CCCO1` (stereo not shown), 13.6%. The figure for `COc1ccc(-c2nc(SC)n(S(=O)(=O)c3ccccc3)n2)cc1` is -1.42%; for `CCCCCCc1ccc(OCC(=O)O)cc1OCC(=O)O` it is 2.33%; for `Cc1ccc2nc(SCC(=O)Nc3ccc(C(N)=O)cc3)[nH]c2c1` it is 3.74%. In the case of `COc1ccc2oc(C(=O)OCC(=O)N3CCN(c4ccccc4)CC3)c(C)c2c1`, the “hERG current change (%, negative = inhibition) at 10uM” value is 7.88%. Regarding `Oc1c(C=NCc2ccc(F)cc2)[nH]c2ccc(Br)c(Cl)c12`, the “hERG current change (%, negative = inhibition) at 10uM” value is -6.34%. Take `COc1ccc(CC(=O)Nc2cc(C)ccn2)cc1OC`: the “hERG current change (%, negative = inhibition) at 10uM” value stood at 16.2%. Consider `Cc1cccc(C(=O)NCc2nnc(SCC(=O)NC3=NCCS3)n2C)c1`, for which the “hERG current change (%, negative = inhibition) at 10uM” value amounted to 22.8%. For the compound `CC(Sc1nccn1C)C(=O)c1ccc(Br)cc1` (stereo not shown), the “hERG current change (%, negative = inhibition) at 10uM” value is recorded as 14%. Regarding `CCCCN1C(=S)NC[C@@H]1Cc1ccc(O)cc1`, the “hERG current change (%, negative = inhibition) at 10uM” value is given as 7.98%.

Turning to `S=c1nccc(-c2ccc(Cl)cc2)[nH]1`, the “hERG current change (%, negative = inhibition) at 10uM” value was 15.4%. The figure for `Br.Clc1ccccc1CNCC1CCCO1` (stereo not shown) is 0.516%. The figure for `COC(=O)N/N=C(\C)c1cccs1` is 17%; for `C/C(Cl)=C/CSc1nn2c(=O)c3ccccc3nc2s1` it is -38.4%; for `Cc1cc(C(=O)COC(=O)c2cccn2C)c(C)n1Cc1ccco1` it is 21.4%.

For the compound `CC(=O)c1c(C)[nH]c(C(=O)OCC(=O)NCCC2=CCCCC2)c1C`, the “hERG current change (%, negative = inhibition) at 10uM” value is -1.07%. In the case of `CCc1nnc(NC(=O)CSc2nc(-c3ccccc3)cc(-c3ccc(OC)cc3)c2C#N)s1` it was 16.8%. In the case of `CCC(OC(=O)CCc1nc2ccccc2[nH]c1=O)C(=O)c1ccccc1` (stereo not shown) it was 7.92%; in that of `COCCNC(=O)c1cc(S(=O)(=O)N(C)c2ccccc2OC)ccc1C`, 1.29%.

Consider `CC(=O)c1ccc(NC(=O)C2CC(=O)Nc3nc4ccccc4n32)cc1` (stereo not shown), for which the “hERG current change (%, negative = inhibition) at 10uM” value turned out to be 14.9%. Take `O=S(=O)(Nc1ccccn1)c1ccc(Cl)c2ccccc12`: the “hERG current change (%, negative = inhibition) at 10uM” value is 19.5%. As for `COC(=O)c1ccccc1NC(=S)N1CCN(c2ccc(OC)cc2)CC1`, the “hERG current change (%, negative = inhibition) at 10uM” value is reported as 5.71%. For `O=S(=O)(Nc1ccccc1)c1cccc2nonc12`, the “hERG current change (%, negative = inhibition) at 10uM” value came to 15.1%.

Turning to `O=C(c1ccc(OC2CCN(CCc3ccccc3)CC2)cc1)N1CCC(CO)CC1`, the “hERG current change (%, negative = inhibition) at 10uM” value is reported as -0.17%.

For the compound `COc1ccc(/C=N/NC(=O)Cn2nc(C)c([N+](=O)[O-])c2C)cc1`, the “hERG current change (%, negative = inhibition) at 10uM” value is reported as -11.9%.

For the compound `CC(C)(C)n1nnnc1C(c1cccnc1)N1CCN(c2ccccn2)CC1` (stereo not shown), the “hERG current change (%, negative = inhibition) at 10uM” value is given as 21.1%. For `CC(=O)Nc1cccc(/C(C)=N/NC(=S)NC(C)C)c1`, the “hERG current change (%, negative = inhibition) at 10uM” value is -11.3%.

In the case of `CC1=CC(C)(C)N2C(=O)C3(NCCc4c3[nH]c3ccccc43)c3cccc1c32` (stereo not shown), the “hERG current change (%, negative = inhibition) at 10uM” value came to 28.2%. In the case of `CCc1ccc(N2C(=O)NC(=O)/C(=C/c3ccsc3)C2=O)cc1` it was 5.92%.

As for `N#CCC(=O)Nc1ccc(C(=O)OCC(=O)c2ccc3c(c2)OCCO3)cc1`, the “hERG current change (%, negative = inhibition) at 10uM” value came out at 10.5%. In the case of `CN1CCC(N(C)C(=O)COc2ccccc2-c2ccccc2)CC1.Cl`, the “hERG current change (%, negative = inhibition) at 10uM” value is given as -25.5%.

As to `COc1ccnc(Oc2ccc(F)cc2)c1C(=O)N/C=N/OCc1c(Cl)cccc1Cl`, the “hERG current change (%, negative = inhibition) at 10uM” value is on record as -5.9%.

As to `COc1ccccc1-c1cc(-c2ccc(O)cc2)nc(N)c1C#N`, the “hERG current change (%, negative = inhibition) at 10uM” value stood at 13.9%. In the case of `CCCCNC(=O)C1CC(=O)N(C2CCCCC2)C1` (stereo not shown) it was 7.23%. In the case of `Cc1cc(/C=C2/C(=O)NN(c3ccccc3)C2=O)c(C)n1-c1ccc(O)cc1` it was 10.5%; in that of `Cc1ccc(-n2c(N)c(-c3nc4ccccc4n3C)sc2=S)cc1`, 9.83%; in that of `COc1ccc(CNC(=O)OCc2nccnc2C(=O)Nc2ccc(Br)cn2)cc1`, -19%.
